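Cultured in 96-well plates, cells were exposed to test compound for 48 hours across five concentrations. GI50 is the concentration that inhibits growth by half. Definition used: TGI = concentration required for complete inhibition of growth.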
tested on: NCI-H322M lung; experiment: NCI tumour cell line growth inhibition, 48 h

**Q.** What does the source list for `c1cc(N2CCCC2)c2nc(-c3[nH]ncc3Nc3ncnc4[nH]ccc34)[nH]c2c1`?
**A.** GI50: 0.0743 µM; TGI: 0.529 µM

**Q.** With `CC[C@H]1C[C@@H](O)[C@@H]2[C@H](O)[C@H](O)CN2C1` as the compound, how does the TGI read?
**A.** Its TGI is > 100 µM.

**Q.** Which TGI does the source give for `OC(Cc1cccnc1)(c1ccccc1)c1ccccc1` here?
**A.** Its TGI is > 100 µM.

**Q.** Which GI50 does the source give for `O=C(OC(CNc1c(C(=O)c2ccccc2)c(=O)n(Cc2ccccc2)c(=O)n1Cc1ccccc1)CN1CCOCC1)c1ccccc1` (centres undefined) here?
**A.** Its GI50 is 56.8 µM.

**Q.** What about the TGI of the same compound?
**A.** Its TGI is > 100 µM.

**Q.** Which TGI does the source give for `Nc1nc(N)nc(-c2ccccc2NS(=O)(=O)c2ccc([N+](=O)[O-])cc2)n1` here?
**A.** The TGI was > 100 µM.

**Q.** How did the GI50 turn out when `O=C([O-])c1ccc2c(c1)-c1nc-2nc2[n-]c(nc3nc(nc4[n-]c(n1)c1ccc(C(=O)[O-])cc41)-c1ccc(C(=O)[O-])cc1-3)c1ccc(C(=O)[O-])cc21.[Gd+3].[K+]` was run?
**A.** Its GI50 is > 100 µM.

**Q.** What about the TGI of the same compound?
**A.** The TGI was > 100 µM.

**Q.** How did the TGI turn out when `NC(N)=NS(=O)(=O)c1ccc(NC(=O)c2cccc3c(NNc4ccc(C(=O)O)cc4)c4ccccc4nc23)cc1` was run?
**A.** The TGI was > 100 µM.

**Q.** Which GI50 does the source give for `Nc1nc2c(c3cnccc13)C(c1cccc(Br)c1)Cc1cnccc1-2` (centres undefined) here?
**A.** Its GI50 is 1.66 µM.

**Q.** What about the TGI of the same compound?
**A.** The TGI was 19.1 µM.

**Q.** Which TGI does the source give for `Cc1cc2c(cc1C)N1C(Cl)=C3CCCCC3=C(C#N)C1N2` (centres undefined) here?
**A.** Its TGI is 52.3 µM.

**Q.** With `COc1ccc2c(c1OC)CN1CCc3cc4c(cc3C1C2)OCO4` (centres undefined) as the compound, how does the TGI read?
**A.** Its TGI is > 100 µM.

**Q.** Which TGI does the source give for `CC(=O)Oc1ccc2c(c1OC(C)=O)CCC1C2=CC[C@]2(C)C(=O)CCC12` (some centres undefined) here?
**A.** Its TGI is 85.8 µM.

**Q.** For `O=C1C=CC(=O)c2c1c1c(c3c2C2c4ccccc4C3c3ccccc32)C2c3ccccc3C1c1ccccc12`, which TGI is on record?
**A.** Its TGI is 49.5 µM.

**Q.** For `CON(C)C(=O)CCCO`, which TGI is on record?
**A.** The TGI was > 100 µM.

**Q.** What does the source list for `CCCCCCCCCCCCC[N+](C)(C)Cc1ccccc1`?
**A.** GI50: 2.37 µM; TGI: 5.62 µM

**Q.** `O=C(O)c1ccccc1SCc1cccc2c(=O)c3ccc(Cl)cc3oc12` was tested. Which TGI did it give?
**A.** Its TGI is > 50 µM.

**Q.** Which GI50 does the source give for `Cc1cc(C)c(CNC(=O)c2cc(-c3ccc(CN4CCOCC4)cc3)cc3c2cnn3C2CCCC2)c(=O)[nH]1` here?
**A.** Its GI50 is 19.5 µM.

**Q.** What about the TGI of the same compound?
**A.** The TGI was 52.3 µM.

**Q.** For `CN1C(NN)=NS(=O)(=O)c2ccccc21`, which TGI is on record?
**A.** The TGI was > 100 µM.

**Q.** For `CN(C)CCNC(=O)c1ccc(Cl)c2c(Nc3ccc(S(=O)(=O)N=C(N)N)cc3)c3ccccc3nc12`, which TGI is on record?
**A.** Its TGI is 19.9 µM.

**Q.** For `Cc1cc(S(=O)(=O)Nc2nc(N)nc(N(C)C)n2)c(S)cc1Cl`, which TGI is on record?
**A.** The TGI was > 10 µM.

**Q.** With `Cc1ccnc(NS(=O)(=O)c2ccc(NC3=CC(=O)C(=O)c4ccccc43)cc2)n1` as the compound, how does the TGI read?
**A.** The TGI was > 100 µM.

**Q.** What does the source list for `COc1cc(/C=C2\CC3C4CCC5=CC(=O)CC[C@]5(C)C4CC[C@]3(C)C2=O)ccc1OCCCn1ccnc1` (some centres undefined)?
**A.** GI50: 0.254 µM; TGI: 3.54 µM

**Q.** How did the TGI turn out when `COc1ccccc1N=Nc1c(-c2ccccc2)nn(C(=O)CC(=O)Nc2ccccc2Cl)c1-c1ccccc1` was run?
**A.** Its TGI is > 100 µM.

**Q.** Which results are given for `COc1cc(-n2cncc2-c2ccc3ccccc3c2)cc(OC)c1OC`?
**A.** GI50: 3.7 µM; TGI: > 100 µM

**Q.** `COC(=O)CNC(=O)c1cc(C)cc2c1Oc1c(cc(C)cc1C(=O)NCC(=O)OC)S2` was tested. Which TGI did it give?
**A.** The TGI was > 100 µM.

**Q.** Which TGI does the source give for `OCCNc1ncnc2nc[nH]c12` here?
**A.** The TGI was > 100 µM.

**Q.** `COC(=O)C1=C(C)NC(C)=C(C(=O)OC)C1c1ccc(NO)cc1` was tested. Which TGI did it give?
**A.** The TGI was > 100 µM.

**Q.** `CC1=C(SCCC(=O)OCC(=O)NCCC[Te]c2ccccc2)C(=O)c2ccccc2C1=O` was tested. Which GI50 did it give?
**A.** The GI50 was 3.05 µM.

**Q.** What about the TGI of the same compound?
**A.** The TGI was 11 µM.

**Q.** How did the GI50 turn out when `Cc1cc(OCc2n[nH]c(=S)n2/N=C/c2ccc(F)cc2)ccc1Cl` was run?
**A.** Its GI50 is 16.8 µM.

**Q.** What about the TGI of the same compound?
**A.** The TGI was 59.9 µM.

**Q.** `CCOc1cc(NC(C)=O)ccc1C(=O)NN1C(=O)/C(=C/c2ccco2)N=C1c1ccccc1` was tested. Which TGI did it give?
**A.** The TGI was > 100 µM.

**Q.** `CN(C)c1ccc2nc3ccc(=N)cc-3sc2c1` was tested. Which GI50 did it give?
**A.** The GI50 was 23.3 µM.

**Q.** What about the TGI of the same compound?
**A.** Its TGI is > 100 µM.

**Q.** `Nc1nc[n+](Cc2ccccc2CCO)c2nc[nH]c12` was tested. Which TGI did it give?
**A.** Its TGI is > 100 µM.

**Q.** What does the source list for `O=C(Cc1csc2nc(-c3ccc(Br)cc3)cn12)N/N=C/c1cc(Br)ccc1O`?
**A.** GI50: 5.24 µM; TGI: 37 µM

**Q.** With `Cc1ccc2nc(C=Nc3ccccc3Cl)cc(C)c2c1` as the compound, how does the TGI read?
**A.** The TGI was > 100 µM.

**Q.** Which TGI does the source give for `COc1nc(NC2OC(COC(C)=O)C(OC(C)=O)C(OC(C)=O)C2OC(C)=O)c(N=CC=Nc2c(NC3OC(COC(C)=O)C(OC(C)=O)C(OC(C)=O)C3OC(C)=O)nc(OC)n(C)c2=O)c(=O)n1C` (centres undefined) here?
**A.** The TGI was > 100 µM.

**Q.** `O=C1C[C@H](Sc2ccccc2)C2(OCCO2)[C@H]2ON3CCC[C@@H]3[C@@H]12` was tested. Which TGI did it give?
**A.** Its TGI is 20.1 µM.

**Q.** Which GI50 does the source give for `CC(C)=CC(=O)OCC(=O)O[C@@H]1C[C@]2(C(C)C)O[C@@]1(C)[C@@H]1CC[C@@H](C)[C@H]1[C@@H]2OC(=O)/C=C/c1ccccc1` here?
**A.** Its GI50 is > 64.6 µM.

**Q.** And the TGI?
**A.** Its TGI is > 100 µM.

**Q.** For `CC(=O)OC1C[C@@H](C)C2(C[C@H](O)c3ccoc3)C(=O)OC[C@]13C2CCC(O)C31CO1` (some centres undefined), which TGI is on record?
**A.** Its TGI is > 100 µM.

**Q.** Which results are given for `CCC[CH2][Sn]([CH2]CCC)([O]C(=O)Cc1ccc(F)cc1)[O]C(=O)Cc1ccc(F)cc1`?
**A.** GI50: 1.61 µM; TGI: 3.25 µM

**Q.** Which results are given for `Nc1ccc2c(c1)Cc1cc(Cl)c(Cl)cc1-2`?
**A.** GI50: 4.14 µM; TGI: > 100 µM

**Q.** Which GI50 does the source give for `COc1ccc2c(c1)N(CCO)C1=C(C(=O)OC1)C2c1cc(OC)c(OC)c(OC)c1` (centres undefined) here?
**A.** The GI50 was 0.0428 µM.

**Q.** And the TGI?
**A.** The TGI was > 50 µM.

**Q.** With `COc1ccc2[nH]c3c(C)c4ccnc(NCCCN(C)CCCNc5ccc6nnn7c8ccccc8c(=O)c5c67)c4c(C)c3c2c1` as the compound, how does the TGI read?
**A.** Its TGI is 2.18 µM.

**Q.** `COc1cc2c(cc1O)N=C[C@@H]1C[C@@H](F)CN1C2=O` was tested. Which GI50 did it give?
**A.** The GI50 was 0.976 µM.

**Q.** And the TGI?
**A.** The TGI was 4.24 µM.
